Data as given in PubChem BioAssay AID588855 (National Center for Advancing Translational Sciences (NCATS), 2011).
In all, about 410,000 compounds went through this assay and about 5,000 (1.2%) were called active. The inconclusive results got no clear call from the source; some entries with a clear call stand among them for comparison. Calls follow the shape of the dose curve; as a rule, active = well fitted inhibition curve with a large enough effect; inconclusive = small, poorly fitted or top-dose-only effect; inactive = no such curve, though single readings can be large or run the other way. Where the call is inconclusive, the potency comes from a doubtful curve fit.

test: qHTS for Inhibitors of TGF-b; details: HepG2 CAGA-GFP TGF-b/SMAD3 reporter, GFP fluorescence, 18 h, TGF-beta stimulated, 500 pg/mL final; series mostly up to 46.1 µM; activity, negative = inhibition: at the top concentration; also: nearly all actives have a fitted effect of over 65% in size
Outline: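 TGF-beta reporter screen: HEPG2 CAGA-GFP, 1% FBS, 500 pg/mL TGF-beta final, 18 h; per-cell GFP summed per well; curves fitted and categorized by class.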
% is scaled to controls: 0 for no effect and ±100 for the full control effect; potency is read from the fitted curve at half-maximal effect; tags tell the direction and shape of the fitted curve.

Structure (SMILES) | activity, negative = inhibition | Potency
CCc1ccc(/C=C(/C#N)c2nc(-c3ccc(C)cc3)cs2)cc1 | inactive: 11.1% | 
COc1ccc(CNC(=O)CN(Cc2ccc(C)cc2)C(=O)c2csnn2)cc1 |  | inconclusive: 35.5 µM [inhibitor, single point]
COC(=O)c1ccc(S(=O)(=O)N(C2CCCCC2)C2CCCCC2)n1C | inactive: -20.7% | 
CCc1ccc(NC(=O)N2CCN(C(=O)C3CCCO3)CC2)cc1 (stereo not drawn) | inactive: -1.01% | 
COc1ccc(-c2cc(C(=O)NCC3CCCO3)c3ccccc3n2)cc1 (stereo not drawn) | inactive: -9.49% | 
COc1ccc(CNC(=O)N2CCc3ccccc3C2)cc1Cl | inactive: 0.144% | 
O=C(OCc1nc2ccc(Cl)cc2n1CCO)c1ccccc1C(=O)c1ccccc1 |  | inconclusive: 22.4 µM [inhibitor, single point]
Cc1ccc(-c2cccc([C@H]3[C@@H]4C=CC[C@@H](C)[C@@H]4C(=O)N3Cc3ccccc3)c2)cc1 |  | active: 20 µM
CSc1c(CC(=O)NCCCO)n(Cc2ccccc2)c2ccccc12 | inactive: -24.6% | 
COc1ccc(C)cc1NC(=O)c1cc(C2CC2)nc2c1c(C)nn2C1CCS(=O)(=O)C1 (stereo not drawn) | inactive: 6.54% | 
CCOC(=O)C(=Cc1ccccc1OC)C(=O)OCC |  | inconclusive: 35.5 µM [inhibitor, single point]
COc1cc(/C=N/NC(=O)CCn2c3ccccc3c3ccccc32)ccc1O |  | inconclusive: 7.08 µM [inhibitor, partial curve]
O=C(N/N=C1\CCCCc2ccccc21)c1ccccn1 |  | inconclusive: 14.1 µM [inhibitor, single point]
Oc1ccc(/C=N/N(Cc2ccccc2)c2ccccc2)cc1 |  | inconclusive: 17.8 µM [inhibitor, partial curve, poor fit]
COc1ccc(/C(C)=N/Nc2nc3ccccc3nc2C)cc1OC | inactive: -30.8% | 
CC[N+]1=C(C)C(C)(C)c2cc(C)ccc21 |  | inconclusive: 17.8 µM [inhibitor, partial curve, poor fit]
CCOC(=O)N1CCN(S(=O)(=O)c2ccc(C)cc2)CC1 |  | inconclusive: 20 µM [inhibitor, single point]
O=C(O)CCCCCn1c(O)c(C=C2N=c3ccccc3=N2)sc1=S |  | inconclusive: 3.16 µM [inhibitor, full curve]
CC(C(=O)Nc1cc([N+](=O)[O-])ccc1Cl)N1CCN(c2ccccc2O)CC1 (stereo not drawn) |  | inconclusive: 12.6 µM [inhibitor, partial curve, poor fit]
COc1cc(/C=C/C(=O)OCC(=O)NC(=O)NC23CC4CC(CC(C4)C2)C3)ccc1OCC#N | inactive: -12.2% | 
O=[N+]([O-])c1ccc(COc2ccccc2/C=N/O)cc1 |  | inconclusive: 3.16 µM [inhibitor, single point]
Cc1cc(NC(=O)CCC(=O)N(CC(=O)NCC2CCCO2)c2ccc(C)c(C)c2)no1 (stereo not drawn) |  | inconclusive: 5.62 µM [inhibitor, single point]
O=C(COc1ccccc1-c1ccccc1)N/N=C/c1ccc2ccccc2c1 |  | active: 7.08 µM

Structure (SMILES) | activity, negative = inhibition | Potency
Cc1cc(C)cc(NC(=O)CN2CCC(NC(=O)Cc3ccccc3)CC2)c1 |  | inconclusive: 28.2 µM [inhibitor, single point]
CCN(CC)C(=O)CN(c1cc2c(cc1OC)oc1ccccc12)S(=O)(=O)c1ccccc1 |  | inconclusive: 0.141 µM [inhibitor, full curve, poor fit]
CC(C)(C)c1cc(C(=O)NCc2cc(F)cc3c2OCOC3)n(Cc2ccccc2)n1 |  | inconclusive: 10 µM [inhibitor, partial curve, poor fit]
CC(=O)Nc1ccc(NC(=O)Cn2nc([N+](=O)[O-])c(Br)c2C)cc1 | inactive: 0.795% | 
CC1CCCCN1Cc1nc2c(c(=O)n(C)c(=O)n2C)n1Cc1c(F)cccc1Cl (stereo not drawn) | inactive: -7.33% | 
CCCCc1c(C)nc2nc(SCc3ccc(Cl)cc3)[nH]n2c1=O |  | inconclusive: 11.2 µM [inhibitor, single point]
NC(=O)CC(NC(=O)c1ccc(Br)cc1)c1ccc(N2CCCCCCC2)c([N+](=O)[O-])c1 (stereo not drawn) |  | inconclusive: 35.5 µM [inhibitor, single point]
COc1cc2ccccc2cc1C(=O)N(CCN(C)C)c1nc2c(C)cccc2s1 |  | inconclusive: 35.5 µM [inhibitor, single point]
CCN(CC)CCNc1ncnc2c1sc1nc(N3CCCC3)c3c(c12)CC(C)(C)OC3 |  | inconclusive: 12.6 µM [inhibitor, partial curve, poor fit]
C=CCOc1ccc(CNc2nn[nH]n2)cc1OC |  | inconclusive: 11.2 µM [inhibitor, single point]
O=C(N/N=C/c1ccccn1)c1cc(-c2ccc(Cl)s2)[nH]n1 |  | inconclusive: 35.5 µM [inhibitor, single point]
C=C(C)C1Cc2c(C)nn(-c3cccc4ccccc34)c2C1 (stereo not drawn) |  | inconclusive: 20 µM [inhibitor, single point]
Cn1c(=O)n(C)c2cc(S(=O)(=O)Nc3ccccc3O)ccc21 | inactive: 17.7% | 
COc1ccc(-c2cn(Cc3ccc(C(N)=O)cc3)c(CCN)n2)cc1 | inactive: 0.545% | 
CS(=O)(=O)c1cccc(C(=O)Nc2ccc(S(=O)(=O)N3CCCCC3)cc2)c1 | inactive: -8.32% | 
CCC(C)(C)C1CCc2c(sc(N)c2C(N)=O)C1 (stereo not drawn) |  | inconclusive: 22.4 µM [inhibitor, single point]
CN(Cc1ccccc1)C(=O)CN1C(=O)NC2(CCCCCCC2)C1=O |  | inconclusive: 0.501 µM [inhibitor, partial curve, poor fit]
COc1ccc(CCNC(=O)c2cc3c(=O)n(C)c4ccccc4c3s2)cc1OC | inactive: 8.52% | 
CN(c1ccccc1)S(=O)(=O)c1cc(C(=O)OCC(=O)N2CCN(C(=O)c3ccco3)CC2)ccc1Cl |  | active: 10 µM
CCOc1ccc(-n2c(SCC(=O)Nc3ccc(CC)cc3)nc3n[nH]c(C)c3c2=N)cc1 |  | inconclusive: 11.2 µM [inhibitor, partial curve, poor fit]
C/C(=N\NC(=O)c1ccc(CSc2cccc3cccnc23)cc1)C1CCCCC1 |  | inconclusive: 35.5 µM [inhibitor, partial curve, poor fit]
Cc1ccc(Nc2nc(=O)c3cc([N+](=O)[O-])ccc3s2)cc1 | inactive: 5.09% | 
CCOc1ccc(N2C(=O)/C(=C/c3ccccc3OCC(=O)OC)N(CC(=O)OC)C2=S)cc1 |  | inconclusive: 35.5 µM [inhibitor, single point]

Structure (SMILES) | activity, negative = inhibition | Potency
Cc1c(N2C(=O)/C(=C\C3CC=CCC3)SC2=S)c(=O)n(-c2ccccc2)n1C (stereo not drawn) | inactive: -2.73% | 
COc1ccc(C(=O)Nc2ccc(Cc3ccncc3)cc2)cc1Br |  | inconclusive: 35.5 µM [inhibitor, single point]
O=C(/C=C/c1ccc(Cl)cc1)N1CCC(c2nc3ccccc3o2)CC1 |  | inconclusive: 1.58 µM [inhibitor, partial curve, poor fit]
CCOC(=O)CNC(=S)n1cnc(N)n1 |  | inconclusive: 35.5 µM [inhibitor, single point]
Cc1cc(N/N=C2\CC(C)CC(C)(C)C2)nc2ccccc12 (stereo not drawn) |  | inconclusive: 12.6 µM [inhibitor, partial curve, poor fit]
O=C(CN1C(=O)C2CCCCN2C(=O)c2ccccc21)N1CCCc2ccccc21 (stereo not drawn) |  | inconclusive: 22.4 µM [inhibitor, single point]
CCCn1c(=O)c2sccc2n2c(CCCC(=O)N3CCN(c4cccc(Cl)c4)CC3)nnc12 |  | inconclusive: 25.1 µM [inhibitor, single point]
CC(=O)Nc1ccc(NS(=O)(=O)c2cccc3nonc23)cc1 | inactive: -10.4% | 
CC1(C(=O)Nc2ccc(F)c(Cl)c2)Cc2c(-c3ccccc3)ccnc2O1 (stereo not drawn) |  | inconclusive: 11.2 µM [inhibitor, partial curve]
Cn1nccc1C(=O)NC1CCCc2c1cnn2-c1ccccc1F (stereo not drawn) |  | inconclusive: 7.94 µM [inhibitor, partial curve, poor fit]
CCOC(=O)c1c(C)oc2c1c1c(c3ccccc32)OCN(Cc2ccccn2)C1 |  | inconclusive: 8.91 µM [inhibitor, partial curve, poor fit]
COC(=O)c1c(C)[nH]c(C(=O)OCC(=O)c2ccc(C)s2)c1C | inactive: 0.549% | 
COC(=O)c1c(NC(=O)CSc2nnc(-c3ccco3)n2Cc2ccccc2)sc(C)c1C |  | inconclusive: 35.5 µM [inhibitor, single point]
C[C@]12C(=O)N(c3ccc(Cl)cc3)C(=O)N1[C@H]1c3ccccc3OC[C@@H]1[C@H]2c1ccccc1 | inactive: 4.51% | 
CCOC(=O)c1c(C)nc2ccc(Cl)cc2c1-c1ccccc1 |  | inconclusive: 10 µM [inhibitor, partial curve]
CCOC(=O)[C@H]1[C@H]2COc3ccc(C)cc3[C@@H]2N2C(=O)c3cc(F)c(F)cc3NC(=O)[C@@]12C | inactive: -0.118% | 
COc1cc(C2(c3ccc(O)c(OC)c3)C(=O)Nc3c(C)cc(Br)cc32)ccc1O |  | inconclusive: 35.5 µM [inhibitor, single point]
Cc1ccc(Nc2nc3ccc(C(=O)c4ccccc4)cc3n3c(C)nnc23)c(C)c1 | inactive: 0% | 
Cc1cc(C(=S)N2CCOCC2)c(C)n1-c1ccc(F)cc1 | inactive: -13.6% | 
O=C(OCc1ccccc1)/C(=C/c1cccc(Br)c1)NC(=O)c1ccco1 |  | inconclusive: 25.1 µM [inhibitor, single point]
CCOC(=O)C(C(=O)NCc1ccc(C)cc1)c1ncc(C(F)(F)F)cc1Cl (stereo not drawn) |  | inconclusive: 35.5 µM [inhibitor, single point]
CCN(CC)CCOC(=O)c1ccc(N/C=C(/C#N)c2nc(-c3ccc(OC)cc3)cs2)cc1 |  | inconclusive: 25.1 µM [inhibitor, single point]
